Measured values reported in paper PMC6919601, “Identification of Plasmodium dipeptidyl aminopeptidase allosteric inhibitors by high throughput screening” (PLoS ONE, 2019).
In all, about 110,000 compounds went through this assay and about 230 (0.21%) showed an effect of 50% or more. The list shows a part of the results.

target: DPAP1 (Plasmodium falciparum, UniProt Q8IIJ9); test: primary screen, percent inhibition; read by cleavage of a fluorogenic dipeptide substrate; higher = more effect of the substance; design: species or system P. falciparum D10 trophozoite lysates; single well
Sequence (Q8IIJ9 whole entry, looked up): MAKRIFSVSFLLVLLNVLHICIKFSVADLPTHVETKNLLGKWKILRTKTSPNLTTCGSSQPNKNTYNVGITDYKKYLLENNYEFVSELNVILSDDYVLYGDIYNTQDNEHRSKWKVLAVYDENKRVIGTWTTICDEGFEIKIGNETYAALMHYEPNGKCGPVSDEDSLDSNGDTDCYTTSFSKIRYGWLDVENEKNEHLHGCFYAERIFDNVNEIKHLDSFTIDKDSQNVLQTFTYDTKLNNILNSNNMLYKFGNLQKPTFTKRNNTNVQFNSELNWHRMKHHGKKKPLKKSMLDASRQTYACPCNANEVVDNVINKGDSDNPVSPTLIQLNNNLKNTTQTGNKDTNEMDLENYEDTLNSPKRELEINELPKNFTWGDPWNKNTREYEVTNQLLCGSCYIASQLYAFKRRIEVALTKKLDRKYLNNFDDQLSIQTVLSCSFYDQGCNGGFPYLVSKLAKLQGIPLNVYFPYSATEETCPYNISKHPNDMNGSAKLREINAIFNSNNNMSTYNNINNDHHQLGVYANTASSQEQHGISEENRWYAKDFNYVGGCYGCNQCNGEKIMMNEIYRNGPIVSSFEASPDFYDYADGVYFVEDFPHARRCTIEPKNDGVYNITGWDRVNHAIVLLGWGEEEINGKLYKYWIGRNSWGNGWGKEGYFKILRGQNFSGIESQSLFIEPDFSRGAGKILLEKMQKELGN
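Further: 30 min substrate incubation versus DMSO and 10 µM JCP410 controls.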

Compound	% Inhibition @ 10 uM
CCCCc1ccc(NC(=O)C2C3C=CC(O3)C2C(=O)O)cc1 (stereo not drawn)	2.38%
CC(=O)C1=C(O)C(=O)N(CO)C1c1ccc(F)cc1 (stereo not drawn)	0.161%
CC1(C)CC(NC(=O)CCC(=O)O)CC(C)(C)N1	-5.07%
Cc1ccc(S(=O)(=O)N(CC(=O)NCc2ccco2)Cc2cccc(C)c2)cc1	-0.661%
CC(=O)c1cccc(NS(=O)(=O)c2ccc(N)cc2)c1	-1.36%
CCOc1ccc2nc(N3CCCC(C(=O)N4CCN(c5ncccn5)CC4)C3)sc2c1 (stereo not drawn)	1.8%
COc1ccc(-n2c(Cc3cccn3C)nnc2SCC(=O)NC2CCCC2)cc1	-9.6%
O=C(c1cccnc1NCc1ccccc1)N1CCOCC1	-4.58%
Cc1ccc(-c2cc(C(=O)Nc3ccc(S(N)(=O)=O)cc3)c3ccccc3n2)s1	-0.519%
COc1ccccc1-c1nnn2c1nc(O)c1ccccc12	-5.12%
Cn1c(=O)c2c(nc(CO)n2C)n(C)c1=O	2.5%
O=C(O)C1CSC(c2ccccc2O)=N1 (stereo not drawn)	2.9%
O=C1N=C(Nc2ccccc2)S/C1=C/c1cccc(C(=O)O)c1	-0.312%
C=CCNC(=O)Cn1c(=O)sc2ccccc21	-0.636%
CCOc1ccc2nc(NC(=O)Cn3c(-c4ccc(F)cc4)cc(C(C)=O)c3C)sc2c1	-1.88%
COc1ccccc1C(=O)NCCOc1ccc(C(C)(C)C)cc1	-1.17%
Cc1ccc2oc(=O)c3cnn(CC(=O)N(C(C)C)C4CCCCC4)c3c2c1	-3.45%
CCOC(=O)c1cnc(SCc2cccc(Cl)c2)nc1N	0.189%
O=C(O)c1ccc2oc(=O)c(S(=O)(=O)c3ccccc3)cc2c1	0.44%
CCOc1cc(CNc2ccc3c(c2)OCCO3)cc(Br)c1OCC(N)=O	1.83%
CC(=O)c1cccc(Oc2nc(C)nc3sc4c(c23)CCCC4)c1	2.7%
COc1ccc(Cl)cc1C(=O)NCCn1ccc2ccccc21	-1%
CCCCOc1ccc(C(C)(O)CCN2CCOCC2)cc1 (stereo not drawn)	-2.17%
CSc1nc2c(c(=O)[nH]c(=O)n2C)n1C/C=C(/C)Cl	1.54%
CCCOc1ccc(Oc2nc(NC(C)(C)C)nc(N(C)C)n2)nn1	-4.91%
O=C(O)c1ccc(OC2CSC2)cc1	-0.386%

Compound	% Inhibition @ 10 uM
CCc1ccc(Cn2nnc3c(O)nc(C4CCN(C(=O)c5ccccc5F)CC4)nc32)cc1	5.35%
COc1cc2c(cc1OC)CN(Cc1c[nH]c3ccccc13)CC2	-2.56%
OCCC1CCCCN1C/C=C/c1ccccc1 (stereo not drawn)	-1.21%
CCN1CCN(Cc2ccc(Br)cc2)CC1	-0.969%
COc1cccc2c1cc1c(=O)n(CC(=O)NCCc3cccs3)nc(C)n12	0.0198%
CNC(=O)/C(=C/c1ccco1)NC(=O)c1ccccc1	0.317%
CC(NC(=O)c1ccc(CS(=O)(=O)Cc2ccccc2Cl)o1)c1ccccc1 (stereo not drawn)	-0.267%
O=C(C1COc2cc(S(=O)(=O)NCc3ccccc3Cl)ccc2O1)N1CCCCCC1 (stereo not drawn)	-4.75%
CC(C)(C)c1ccc(C(=O)n2nc(-c3cccnc3)nc2NCc2ccc(F)cc2)cc1	-2.92%
COc1ccc(N(C(C)C(=O)Nc2ccc(OC)c(OC)c2)S(C)(=O)=O)cc1 (stereo not drawn)	0.389%
O=C(CN1C(=O)c2cccc3cccc1c23)Nc1ccc(F)c(F)c1	-8.43%
CC(=O)N[C@H]1[C@H](Oc2ccc(C)cc2)O[C@@H]2COC(C)(C)O[C@H]2[C@@H]1O	-1.64%
CCOc1cc(C2C(C#N)=C(N)Oc3cc(O)ccc32)ccc1OCc1ccc(F)cc1 (stereo not drawn)	3.87%
Cc1ccc2oc(-c3cc(NC(=O)c4ccncc4)ccc3C)nc2c1	0.661%
Cc1ccc(NC(=O)CC2Sc3ccccc3NC2=O)cc1 (stereo not drawn)	-2.17%
COC(=O)Nc1ccc(S(=O)(=O)NCC(=O)O)cc1	-0.0369%
COc1ccc(OC)c(CCNC(=O)c2cnn(C)c2C2CCN(C(=O)OC(C)(C)C)CC2)c1	-4.03%
Cc1cc(C)n(CC(=O)c2ccc(F)c(F)c2)n1	1.66%
COc1ccc([N+](=O)[O-])cc1NC1C2CC3CC(C2)CC1C3 (stereo not drawn)	3.82%
O=C(c1ccc(Cl)c(Cl)c1)N1CCCC1	-0.687%
COc1cc(NS(=O)(=O)c2ccc(NC(=O)c3ccccc3)cc2)nc(OC)n1	11.8%
COCCNC(=O)c1nn2c(c1Cl)NC(c1cccs1)CC2C(F)(F)F (stereo not drawn)	-6.69%
CC1=C(C#N)C(C(F)(F)F)(C(F)(F)F)NC(c2cccc(Cl)c2)=N1	3.19%
C=CCNC(=S)Nc1sc2c(c1C(=O)OCC)CC(C(C)C)OC2 (stereo not drawn)	-3.33%
Cc1ccc(S(=O)(=O)c2nc(S(=O)(=O)c3ccc(C)cc3)c(NCC3CCCO3)s2)cc1 (stereo not drawn)	0.627%
C(=C\c1ccccc1)/CN1CCN(Cc2ccco2)CC1	0.847%

Compound	% Inhibition @ 10 uM
CCOc1ccccc1NC(=O)CN1C(=O)c2ccccc2C1=O	-5%
CC1=CC(C)(C)N(C(=O)c2ccc(Br)cc2)c2ccccc21	-3.77%
O=C(c1ccccc1)c1ccc2nc(NCC3CCCO3)c3nncn3c2c1 (stereo not drawn)	2.42%
NC(=O)c1ccc(NC(=O)CN(Cc2ccc(Cl)cc2)S(=O)(=O)c2ccccc2)cc1	20%
CCOCCCNC(=O)c1cc2c(=O)oc3ccc(C)cc3c2s1	-2.75%
COc1ccc(N(CC(=O)N2CCc3ccccc3C2)S(C)(=O)=O)cc1OC	-2.32%
CCCCC12CN3CC(C)(CN(C1)C3c1ccc(OC(C)C)cc1)C2=O (stereo not drawn)	-1.71%
Cc1ccc(-n2c(=O)[nH]c3ncccc3c2=O)cc1	-3.45%
COC(=O)c1ccc2c(c1)C(=O)N(c1ccsc1Cl)C2=O	-6.17%
O=C1CCCC2=C1C(c1ccccc1Cl)C1=C(CCCC1=O)O2	2.69%
Cc1c(CNCC(C)c2ccccc2)c(C(=O)O)c(C)n1Cc1cccc(Cl)c1 (stereo not drawn)	7.46%
CCCN1C(=O)c2ccccc2NC1c1ccc(O)c(OCC)c1 (stereo not drawn)	8.6%
Cc1nonc1OCC(C)(COc1nonc1C)NS(=O)(=O)c1ccc(Cl)cc1	4.34%
COc1ccc(CNC(=O)c2cc3ccc4cccnc4c3[nH]2)cc1	2.6%
NC(=O)/C(=C/c1ccc2c(c1)OCO2)NC(=O)c1cccc(Br)c1	0.214%
O=C1N=C(N2CCc3ccccc3C2)S/C1=C\c1ccccc1	1.52%
Cc1ccc2cc3cc(C(=O)N4CCC5(CC4)OCCO5)oc3nc2c1	-3.35%
Cc1nn(CC(=O)NCCC2=CCCCC2)c(=O)c2c1sc1ccccc12	-4.26%
O=C(CNc1ccc(Cl)cc1)c1ccc(Cl)cc1	-1.69%
CCCCn1c(=O)c(C#N)cc2c(=O)n3ccccc3nc21	2.73%
Cc1cc(OCC(=O)N2CCOCC2)ccc1Br	-2.36%
C=CCc1c(C)nc(-c2ccccc2)nc1Nc1ccc(C)cc1	-2.44%
c1ccc2c(c1)CCN(Cc1ccncc1)C2	-0.446%
O=C(c1cccs1)c1coc2ccc(O)c(CN3CCOCC3)c12	3.6%
COc1cccc2c1OC(CC(C)C)N1N=C(c3cc(C)ccc3O)CC21 (stereo not drawn)	-5.36%
Cc1c(NC(=O)C(c2ccccc2)c2ccccc2)c(=O)n(-c2ccccc2)n1C	4.54%

Compound	% Inhibition @ 10 uM
COc1ccc(CN2CCCCCC2)cc1	-0.192%
CCCc1ccc(Oc2cc(-c3ccccc3)nc(-c3ccccc3)n2)cc1	-11.3%
O=C(CN1N=C(c2ccccc2)CCC1=O)NCc1ccccc1	-4.83%
Oc1ccc(CN2CCN(c3ccccc3)CC2)cc1	-1.92%
COc1cc2c(cc1OC)CC(C)(C)N(C(=O)c1ccccc1)C2	2.17%
O=C(O)c1ccc(CS(=O)c2ccc(Cl)cc2)o1 (stereo not drawn)	-1.28%
CCOC(=O)CC(=N)Nc1sc2c(c1C#N)CCCC2	12.2%
O=C1N/C(=C\c2ccc(N3CCOCC3)c(F)c2)C(=O)N1Cc1ccccc1	-4.14%
Cc1ccc(CNC(=O)CNS(=O)(=O)c2ccc(Br)cc2)cc1	0.161%
CC1=C(C(=O)Nc2ccccc2C)C(c2ccc(Cl)cc2Cl)NC(S)=N1 (stereo not drawn)	-0.13%
CCOc1ccc2ccccc2c1/C=N/n1cncn1	4.1%
COc1cc(-c2c(C#N)c(N)nc(SCC(=O)O)c2C#N)cc(OC)c1OC	2.8%
COc1ccc(CCNC(=O)Cn2ccc3cc(S(=O)(=O)N4CCCCC4)ccc32)c(OC)c1	-1.45%
O=C(CS)Nc1ccc(C(=O)O)cc1	2.17%
O=S(=O)(c1ccccc1)N1N=C(c2ccccc2)CC1c1ccccc1 (stereo not drawn)	-10%
Nc1c(C(=O)O)noc1C(=O)c1ccccc1	0.0882%
Cc1ccc(-c2nnc(NC3CCCCC3)c3ccccc23)cc1S(=O)(=O)N1CCN(C)CC1	-2.65%
CCOc1ccc([N+]2=C3SCCCN3C(O)(c3ccccc3)C2)cc1 (stereo not drawn)	7.77%
CCCc1cc(O)n2ncnc2n1	4.18%
COc1cc(OC)cc(-c2nc3n(n2)C(c2cccc(OC)c2OC)C2=C(O)CCCC2=N3)c1 (stereo not drawn)	0.275%
COc1ccc(-c2cc(NC(=O)N3CCc4ccccc4C3)c3ccccc3n2)cc1	-8.79%
COc1ccccc1/C=C/c1nn2c(Cn3cnc4ccccc43)nnc2s1	2.89%
COc1ccc(OC)c(CNC(=O)Cc2csc3ccccc23)c1	1.63%
C/C(=C/S(=O)(=O)c1ccc(C)cc1)N1CCCC1	2.19%
